In article PMC9333452 one finds binding data, which are given here for five molecules.

Chains of the proteins cited; added tags and fusions are not shown.
UniProt P23258: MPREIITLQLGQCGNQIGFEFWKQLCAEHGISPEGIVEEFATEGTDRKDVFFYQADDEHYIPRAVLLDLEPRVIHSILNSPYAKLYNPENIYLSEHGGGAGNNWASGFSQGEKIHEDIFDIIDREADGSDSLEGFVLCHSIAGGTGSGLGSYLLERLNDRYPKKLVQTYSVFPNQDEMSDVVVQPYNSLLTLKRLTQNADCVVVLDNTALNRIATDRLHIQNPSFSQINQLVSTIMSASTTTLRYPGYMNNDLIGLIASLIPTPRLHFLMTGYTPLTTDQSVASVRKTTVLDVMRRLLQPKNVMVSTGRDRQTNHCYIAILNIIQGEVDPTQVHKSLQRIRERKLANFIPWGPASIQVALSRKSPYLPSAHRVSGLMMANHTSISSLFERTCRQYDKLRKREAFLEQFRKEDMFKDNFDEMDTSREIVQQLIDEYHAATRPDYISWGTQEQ
UniProt Q96SN8: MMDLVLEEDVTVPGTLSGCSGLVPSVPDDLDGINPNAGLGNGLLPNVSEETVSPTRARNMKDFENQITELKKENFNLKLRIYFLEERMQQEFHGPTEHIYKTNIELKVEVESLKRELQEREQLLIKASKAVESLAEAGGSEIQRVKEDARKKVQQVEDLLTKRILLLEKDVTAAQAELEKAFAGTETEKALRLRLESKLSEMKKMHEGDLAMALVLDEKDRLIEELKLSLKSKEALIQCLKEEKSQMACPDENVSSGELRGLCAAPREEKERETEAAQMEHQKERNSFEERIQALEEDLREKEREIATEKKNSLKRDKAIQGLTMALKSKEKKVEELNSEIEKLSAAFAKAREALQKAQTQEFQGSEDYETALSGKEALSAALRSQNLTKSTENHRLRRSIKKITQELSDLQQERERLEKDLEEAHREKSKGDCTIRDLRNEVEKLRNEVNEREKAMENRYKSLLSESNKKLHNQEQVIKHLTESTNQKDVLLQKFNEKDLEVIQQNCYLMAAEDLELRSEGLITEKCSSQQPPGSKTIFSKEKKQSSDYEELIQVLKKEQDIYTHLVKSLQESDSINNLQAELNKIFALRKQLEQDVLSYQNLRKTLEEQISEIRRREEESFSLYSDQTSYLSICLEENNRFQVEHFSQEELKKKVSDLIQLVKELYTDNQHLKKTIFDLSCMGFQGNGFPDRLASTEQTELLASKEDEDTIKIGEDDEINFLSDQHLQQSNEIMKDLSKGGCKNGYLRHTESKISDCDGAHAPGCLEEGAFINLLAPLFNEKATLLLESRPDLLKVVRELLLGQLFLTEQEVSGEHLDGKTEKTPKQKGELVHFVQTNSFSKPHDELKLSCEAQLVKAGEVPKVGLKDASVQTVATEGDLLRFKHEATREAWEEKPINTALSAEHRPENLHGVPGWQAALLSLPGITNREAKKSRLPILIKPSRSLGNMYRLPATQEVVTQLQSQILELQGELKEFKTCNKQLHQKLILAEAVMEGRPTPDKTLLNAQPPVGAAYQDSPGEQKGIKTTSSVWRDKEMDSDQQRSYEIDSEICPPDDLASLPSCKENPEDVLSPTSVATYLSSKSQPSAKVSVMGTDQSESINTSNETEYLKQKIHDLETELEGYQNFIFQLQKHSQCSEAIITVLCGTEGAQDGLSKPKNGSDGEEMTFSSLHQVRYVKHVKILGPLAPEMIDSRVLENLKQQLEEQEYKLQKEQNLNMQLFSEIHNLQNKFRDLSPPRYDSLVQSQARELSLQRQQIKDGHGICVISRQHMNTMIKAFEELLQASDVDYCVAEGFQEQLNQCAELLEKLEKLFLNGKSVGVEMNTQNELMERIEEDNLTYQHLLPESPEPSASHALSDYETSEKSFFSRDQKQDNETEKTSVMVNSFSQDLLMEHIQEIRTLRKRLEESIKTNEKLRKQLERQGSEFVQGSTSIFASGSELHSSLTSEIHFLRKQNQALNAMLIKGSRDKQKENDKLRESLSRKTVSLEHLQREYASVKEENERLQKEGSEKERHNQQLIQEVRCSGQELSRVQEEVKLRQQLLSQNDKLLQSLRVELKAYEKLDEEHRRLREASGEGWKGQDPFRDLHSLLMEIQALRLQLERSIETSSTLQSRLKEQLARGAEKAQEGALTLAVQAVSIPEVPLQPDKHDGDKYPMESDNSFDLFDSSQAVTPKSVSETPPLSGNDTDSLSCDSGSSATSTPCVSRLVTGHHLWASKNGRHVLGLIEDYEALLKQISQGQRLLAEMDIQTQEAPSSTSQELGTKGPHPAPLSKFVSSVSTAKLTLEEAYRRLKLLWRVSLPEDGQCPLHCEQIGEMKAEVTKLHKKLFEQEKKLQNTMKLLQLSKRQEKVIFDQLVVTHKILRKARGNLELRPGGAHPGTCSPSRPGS
UniProt O94986: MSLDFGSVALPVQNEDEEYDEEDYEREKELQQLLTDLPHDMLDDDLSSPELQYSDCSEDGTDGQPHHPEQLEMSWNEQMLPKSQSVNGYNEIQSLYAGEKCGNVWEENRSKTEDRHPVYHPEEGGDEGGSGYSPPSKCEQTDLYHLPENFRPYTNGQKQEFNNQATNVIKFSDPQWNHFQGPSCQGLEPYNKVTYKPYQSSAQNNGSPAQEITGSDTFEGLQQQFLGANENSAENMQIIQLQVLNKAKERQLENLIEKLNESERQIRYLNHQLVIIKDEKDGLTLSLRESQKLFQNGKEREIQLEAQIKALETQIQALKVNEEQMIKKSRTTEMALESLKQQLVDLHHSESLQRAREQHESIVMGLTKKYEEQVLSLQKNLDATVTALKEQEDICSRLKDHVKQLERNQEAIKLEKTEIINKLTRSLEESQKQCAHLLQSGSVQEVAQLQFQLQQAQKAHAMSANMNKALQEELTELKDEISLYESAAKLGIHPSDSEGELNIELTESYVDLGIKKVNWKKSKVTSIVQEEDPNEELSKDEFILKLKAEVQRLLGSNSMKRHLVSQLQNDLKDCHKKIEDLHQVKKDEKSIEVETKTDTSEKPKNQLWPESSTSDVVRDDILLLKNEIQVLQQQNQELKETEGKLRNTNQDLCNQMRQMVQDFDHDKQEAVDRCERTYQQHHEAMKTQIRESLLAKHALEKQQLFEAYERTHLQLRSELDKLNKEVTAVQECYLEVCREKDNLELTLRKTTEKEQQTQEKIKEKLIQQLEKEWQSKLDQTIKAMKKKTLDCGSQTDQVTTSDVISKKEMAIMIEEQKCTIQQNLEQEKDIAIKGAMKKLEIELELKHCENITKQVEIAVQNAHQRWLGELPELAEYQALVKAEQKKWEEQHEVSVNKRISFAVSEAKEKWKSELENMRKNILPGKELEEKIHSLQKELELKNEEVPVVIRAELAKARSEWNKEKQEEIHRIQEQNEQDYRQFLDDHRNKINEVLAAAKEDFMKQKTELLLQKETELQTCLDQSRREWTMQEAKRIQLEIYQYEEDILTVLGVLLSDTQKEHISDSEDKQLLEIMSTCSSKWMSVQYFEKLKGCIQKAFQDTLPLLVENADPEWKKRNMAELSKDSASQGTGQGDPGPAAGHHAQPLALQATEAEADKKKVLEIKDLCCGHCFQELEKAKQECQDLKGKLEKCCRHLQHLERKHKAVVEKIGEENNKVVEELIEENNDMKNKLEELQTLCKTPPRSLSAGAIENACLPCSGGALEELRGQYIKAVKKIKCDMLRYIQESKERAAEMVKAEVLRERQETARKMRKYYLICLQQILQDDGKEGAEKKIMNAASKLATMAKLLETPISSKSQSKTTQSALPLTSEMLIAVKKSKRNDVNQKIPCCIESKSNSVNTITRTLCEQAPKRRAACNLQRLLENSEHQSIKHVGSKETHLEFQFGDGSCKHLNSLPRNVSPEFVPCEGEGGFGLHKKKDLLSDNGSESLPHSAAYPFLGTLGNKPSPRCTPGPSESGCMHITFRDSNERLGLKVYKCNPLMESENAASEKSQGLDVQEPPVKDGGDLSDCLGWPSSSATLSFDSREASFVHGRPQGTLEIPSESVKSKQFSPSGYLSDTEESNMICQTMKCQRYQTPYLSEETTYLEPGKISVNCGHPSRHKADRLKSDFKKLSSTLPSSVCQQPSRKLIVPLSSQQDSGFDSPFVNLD
UniProt Q8TEP8: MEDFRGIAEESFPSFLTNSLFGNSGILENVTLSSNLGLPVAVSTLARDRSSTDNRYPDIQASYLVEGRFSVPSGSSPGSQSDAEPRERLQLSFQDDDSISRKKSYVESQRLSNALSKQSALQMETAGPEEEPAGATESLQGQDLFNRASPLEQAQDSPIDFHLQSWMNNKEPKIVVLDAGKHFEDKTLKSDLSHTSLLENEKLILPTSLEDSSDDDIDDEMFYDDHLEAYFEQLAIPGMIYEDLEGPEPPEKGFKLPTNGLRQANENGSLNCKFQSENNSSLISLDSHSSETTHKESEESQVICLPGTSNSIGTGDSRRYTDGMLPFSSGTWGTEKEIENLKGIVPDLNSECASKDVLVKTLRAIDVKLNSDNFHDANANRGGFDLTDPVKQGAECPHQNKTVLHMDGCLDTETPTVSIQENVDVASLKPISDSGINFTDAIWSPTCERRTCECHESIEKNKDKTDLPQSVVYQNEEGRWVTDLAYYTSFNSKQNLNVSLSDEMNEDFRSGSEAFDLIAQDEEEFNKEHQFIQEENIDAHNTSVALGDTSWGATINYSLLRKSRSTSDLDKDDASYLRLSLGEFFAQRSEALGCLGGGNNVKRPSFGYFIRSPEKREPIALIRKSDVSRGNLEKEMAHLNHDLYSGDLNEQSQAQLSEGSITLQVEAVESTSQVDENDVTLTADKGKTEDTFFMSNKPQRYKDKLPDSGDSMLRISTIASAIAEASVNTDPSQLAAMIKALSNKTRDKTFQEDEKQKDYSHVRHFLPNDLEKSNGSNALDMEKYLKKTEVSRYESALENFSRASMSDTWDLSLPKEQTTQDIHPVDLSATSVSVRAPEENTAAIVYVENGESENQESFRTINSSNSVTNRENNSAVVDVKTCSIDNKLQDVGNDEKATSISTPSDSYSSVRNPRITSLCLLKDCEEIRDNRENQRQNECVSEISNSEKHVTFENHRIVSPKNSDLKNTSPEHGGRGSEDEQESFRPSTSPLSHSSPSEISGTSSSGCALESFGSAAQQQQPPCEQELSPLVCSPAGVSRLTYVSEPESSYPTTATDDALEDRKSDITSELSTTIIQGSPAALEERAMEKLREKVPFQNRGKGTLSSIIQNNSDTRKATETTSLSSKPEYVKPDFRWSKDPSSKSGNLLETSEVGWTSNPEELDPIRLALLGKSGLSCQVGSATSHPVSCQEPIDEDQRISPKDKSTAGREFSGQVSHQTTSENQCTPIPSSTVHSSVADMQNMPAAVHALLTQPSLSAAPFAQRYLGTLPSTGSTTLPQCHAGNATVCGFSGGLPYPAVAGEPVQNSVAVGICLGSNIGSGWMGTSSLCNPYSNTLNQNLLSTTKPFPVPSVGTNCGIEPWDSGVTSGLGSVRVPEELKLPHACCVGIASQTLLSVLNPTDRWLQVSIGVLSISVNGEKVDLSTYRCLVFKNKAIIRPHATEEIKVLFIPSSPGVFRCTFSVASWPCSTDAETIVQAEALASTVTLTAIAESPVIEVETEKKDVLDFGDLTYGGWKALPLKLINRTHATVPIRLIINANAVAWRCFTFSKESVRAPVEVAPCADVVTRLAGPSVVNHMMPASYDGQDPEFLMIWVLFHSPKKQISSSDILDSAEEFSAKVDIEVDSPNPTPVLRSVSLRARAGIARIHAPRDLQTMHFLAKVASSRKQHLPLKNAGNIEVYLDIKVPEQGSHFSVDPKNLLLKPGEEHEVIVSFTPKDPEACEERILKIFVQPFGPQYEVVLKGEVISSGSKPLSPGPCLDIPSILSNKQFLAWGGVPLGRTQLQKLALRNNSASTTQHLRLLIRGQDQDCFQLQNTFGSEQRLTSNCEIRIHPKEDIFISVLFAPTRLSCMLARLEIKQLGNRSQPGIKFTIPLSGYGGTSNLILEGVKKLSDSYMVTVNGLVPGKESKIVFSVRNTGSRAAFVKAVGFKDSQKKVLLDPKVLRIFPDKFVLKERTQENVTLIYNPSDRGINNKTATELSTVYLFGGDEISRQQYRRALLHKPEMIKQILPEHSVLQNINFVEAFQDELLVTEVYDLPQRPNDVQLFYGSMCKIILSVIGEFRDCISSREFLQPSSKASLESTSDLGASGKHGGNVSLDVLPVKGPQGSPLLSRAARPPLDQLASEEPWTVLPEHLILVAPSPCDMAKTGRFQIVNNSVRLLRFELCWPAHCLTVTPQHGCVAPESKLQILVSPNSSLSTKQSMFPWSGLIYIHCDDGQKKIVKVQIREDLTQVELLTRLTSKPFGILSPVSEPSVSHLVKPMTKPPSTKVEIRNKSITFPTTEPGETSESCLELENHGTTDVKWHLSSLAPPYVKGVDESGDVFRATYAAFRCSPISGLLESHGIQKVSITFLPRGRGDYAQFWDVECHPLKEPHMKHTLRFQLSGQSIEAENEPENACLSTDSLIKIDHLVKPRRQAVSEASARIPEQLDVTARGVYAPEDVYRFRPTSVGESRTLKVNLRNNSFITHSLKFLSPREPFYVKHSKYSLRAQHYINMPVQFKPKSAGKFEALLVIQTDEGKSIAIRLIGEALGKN

T1: Flag-miniTurbo-CCDC66 (UniProt A2RUB6)
T1 sequence: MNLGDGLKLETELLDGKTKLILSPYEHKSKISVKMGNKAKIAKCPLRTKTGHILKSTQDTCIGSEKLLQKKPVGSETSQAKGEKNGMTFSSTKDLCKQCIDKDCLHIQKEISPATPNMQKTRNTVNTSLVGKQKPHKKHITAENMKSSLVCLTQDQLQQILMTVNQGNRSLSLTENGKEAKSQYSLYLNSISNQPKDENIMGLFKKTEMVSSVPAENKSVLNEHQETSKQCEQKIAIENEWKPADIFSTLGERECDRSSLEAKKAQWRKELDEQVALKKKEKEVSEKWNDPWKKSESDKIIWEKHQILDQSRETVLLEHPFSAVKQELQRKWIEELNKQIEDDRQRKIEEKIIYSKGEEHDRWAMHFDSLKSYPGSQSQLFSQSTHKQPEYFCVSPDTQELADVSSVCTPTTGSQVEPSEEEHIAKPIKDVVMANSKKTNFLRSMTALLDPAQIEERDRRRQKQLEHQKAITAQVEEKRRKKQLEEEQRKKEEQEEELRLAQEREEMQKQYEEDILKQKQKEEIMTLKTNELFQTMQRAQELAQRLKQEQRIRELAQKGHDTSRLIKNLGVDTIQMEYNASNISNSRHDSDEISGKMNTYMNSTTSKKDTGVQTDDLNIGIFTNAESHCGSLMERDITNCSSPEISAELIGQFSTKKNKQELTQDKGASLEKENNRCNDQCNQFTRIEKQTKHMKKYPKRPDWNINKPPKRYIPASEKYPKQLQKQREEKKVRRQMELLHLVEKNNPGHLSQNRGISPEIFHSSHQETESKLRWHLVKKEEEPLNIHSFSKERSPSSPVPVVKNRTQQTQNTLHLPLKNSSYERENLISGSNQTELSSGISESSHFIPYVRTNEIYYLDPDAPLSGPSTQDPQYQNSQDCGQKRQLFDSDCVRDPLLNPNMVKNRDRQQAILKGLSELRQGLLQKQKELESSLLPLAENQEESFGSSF

B1: GFP-Cep55 (protein, UniProt Q53EZ4 1-464)
chain: MSSRSTKDLIKSKWGSKPSNSKSETTLEKLKGEIAHLKTSVDEITSGKGKLTDKERHRLLEKIRVLEAEKEKNAYQLTEKDKEIQRLRDQLKARYSTTTLLEQLEETTREGERREQVLKALSEEKDVLKQQLSAATSRIAELESKTNTLRLSQTVAPNCFNSSINNIHEMEIQLKDALEKNQQWLVYDQQREVYVKGLLAKIFELEKKTETAAHSLPQQTKKPESEGYLQEEKQKCYNDLLASAKKDLEVERQTITQLSFELSEFRRKYEETQKEVHNLNQLLYSQRRADVQHLEDDRHKTEKIQKLREENDIARGKLEEEKKRSEELLSQVQFLYTSLLKQQEEQTRVALLEQQMQACTLDFENEKLDRQHVQHQLHVILKELRKARNQITQLESLKQLHEFAITEPLVTFQGETENREKVAASPKSPTAALNESLVECPKCNIQYPATEHRDLLVHVEYCSK

Results are given in words; binding and its absence hold for the method and conditions named. In cells and extracts the contact can be indirect. Some results given as binding are weak or reduced against the parent protein; the word gives no strength. Tags and fused reporters may be left off the sequences shown.

This experiment concerns the target T1, Flag-miniTurbo-CCDC66. The experiment can be described thus: co-IP; HEK293T cells co-transfected; lysed about 48 h later in 50 mM HEPES pH 8, 100 mM KCl, 2 mM EDTA, 10% glycerol, 0.1% NP-40; anti-FLAG M2 agarose beads overnight at 4°C; input and eluates immunoblotted. (In general: In western blotting, separated proteins are transferred to a membrane and probed.)
In the case of “Ruby-Gamma-tubulin (from UniProt P23258 1-451)”, the binding result is “binds”.
With “myc-BirA*-CDK5RAP2 (from UniProt Q96SN8 1-1893)”, the binding result is “binds”.
Consider “myc-BirA*-Cep152 (from UniProt O94986 1-1710)”, for which the binding entry is on record as “binds”.
The entry for “myc-BirA*-Cep192 (from UniProt Q8TEP8 1-2537)” is “binds”; for B1 it is “no binding”.
